Experimental data published in the antibiotic and cytotoxicity screens of Wong et al. (2023).
This is one part of the list.

Assays:
HSkMC = human skeletal muscle cells; experiment: cytotoxicity call (relative viability < 0.9); conditions: 10 µM
HepG2 = experiment: cytotoxicity call (relative viability < 0.9); conditions: 10 µM
S. aureus RN4220 = experiment: growth inhibition call (relative growth <= 0.2); conditions: 50 µM

| SMILES | cytotoxicity call (HSkMC) | cytotoxicity call (HepG2) | growth inhibition call (S. aureus RN4220) |
| --- | --- | --- | --- |
| Nc1ccccc1C(=O)NCCN1CCNC1=O | inactive | inactive | inactive |
| C[C@@H]1CN([C@@H](C)CO)C(=O)c2cc(NC(=O)CCC(F)(F)F)ccc2O[C@@H](C)CCCCO[C@H]1CN(C)C(=O)Nc1cccc2ccccc12 | active | inactive | inactive |
| C[C@@H]1CN([C@@H](C)CO)C(=O)c2cc(NC(=O)Cc3cn(C)c4ccccc34)ccc2O[C@@H]1CN(C)Cc1ccc(C(=O)Nc2ccccc2N)cc1 | inactive | inactive | inactive |
| COc1ncnc(OC)c1C | inactive | inactive | inactive |
| C[C@H]1CCCCO[C@H](CN(C)C(=O)Nc2cccc3ccccc23)[C@@H](C)CN([C@@H](C)CO)C(=O)c2cc(NC(=O)Nc3cccc4ccccc34)ccc2O1 | inactive | inactive | inactive |
| C[C@@H]1CCCCO[C@@H](CN(C)Cc2ccccc2)[C@H](C)CN([C@H](C)CO)C(=O)c2cc(NC(=O)Nc3ccc4c(c3)OCO4)ccc2O1 | inactive | inactive | inactive |
| C[C@H]1CN([C@@H](C)CO)C(=O)CCCn2cc(nn2)CO[C@@H]1CN(C)C(=O)Nc1ccc2c(c1)OCO2 | inactive | inactive | inactive |
| COc1ccc(S(=O)(=O)N[C@H]2CC[C@H](CCNC(=O)CN3CCOCC3)O[C@H]2CO)cc1 | inactive | inactive | inactive |
| C[C@@H]1CCCCO[C@@H](CN(C)Cc2ccc(C(=O)O)cc2)[C@@H](C)CN([C@@H](C)CO)C(=O)c2cc(NS(=O)(=O)c3ccccc3)ccc2O1 | inactive | inactive | inactive |
| C[C@@H]1CCCCO[C@@H](CN(C)C(=O)Nc2ccc3c(c2)OCO3)[C@H](C)CN([C@H](C)CO)C(=O)c2cc(NC(=O)Nc3ccccc3)ccc2O1 | inactive | active | inactive |
| Cc1noc(C)c1NC(=O)N(C)C[C@@H]1OCCCC[C@H](C)Oc2ccc(NC(=O)Nc3ccc4c(c3)OCO4)cc2C(=O)N([C@@H](C)CO)C[C@H]1C | inactive | inactive | inactive |
| C[C@@H]1CN([C@H](C)CO)C(=O)Cc2cc(NC(=O)Cc3ccccc3)ccc2O[C@@H]1CN(C)C(=O)Nc1ccc(C(F)(F)F)cc1 | inactive | inactive | inactive |
| C[C@H]1CN([C@@H](C)CO)C(=O)c2cccc(NC(=O)Nc3cccc4ccccc34)c2O[C@@H]1CN(C)S(=O)(=O)c1ccc(F)cc1 | inactive | active | inactive |
| O=c1[nH]cn[nH]1 | inactive | inactive | inactive |
| O=C(O)[C@@H](O)[C@H](O)C(=O)O | inactive | inactive | inactive |
| C[C@H]1CN([C@@H](C)CO)C(=O)c2cc(NC(=O)C3CCCCC3)ccc2O[C@H]1CN(C)Cc1ccc(C(F)(F)F)cc1 | inactive | inactive | inactive |
| C[C@@H]1CCCCO[C@@H](CN(C)C(=O)C2CCCCC2)[C@H](C)CN([C@H](C)CO)C(=O)c2cc(NC(=O)NC3CCCCC3)ccc2O1 | inactive | inactive | inactive |
| COc1ccc(CN2C[C@@H](C)[C@H](OC)CN(C)C(=O)c3ccc(NC(=O)c4nc5ccccc5s4)cc3OC[C@@H]2C)cc1 | inactive | inactive | inactive |
| C[C@H]1CCCCO[C@H](CN(C)C(=O)Nc2cccc3ccccc23)[C@@H](C)CN([C@@H](C)CO)C(=O)c2cc(NC(=O)Cc3ccccc3)ccc2O1 | inactive | inactive | inactive |
| Cc1noc(C)c1S(=O)(=O)Nc1ccc2c(c1)C(=O)N([C@@H](C)CO)C[C@H](C)[C@H](CN(C)C(=O)NC(C)C)O2 | inactive | inactive | inactive |
| CN(C)C(=O)C[C@H]1C=C[C@H](NC(=O)C2CC2)[C@@H](CO)O1 | inactive | inactive | inactive |
| Cc1ccc(S(=O)(=O)Nc2ccc3c(c2)C(=O)N([C@H](C)CO)C[C@@H](C)[C@@H](CN(C)S(C)(=O)=O)OCCCC[C@@H](C)O3)cc1 | inactive | inactive | inactive |
| C[C@H](CO)N1C[C@H](C)[C@@H](CN(C)CC2CCOCC2)Oc2cc(Br)ccc2S1(=O)=O | inactive | inactive | inactive |
| COc1cc([C@@H](O)[C@@H](CO[C@@H]2O[C@H](CO)[C@@H](O)[C@H](O)[C@H]2O)Oc2ccc(/C=C/CO)cc2OC)ccc1O | inactive | inactive | inactive |
| C[C@H](CO)N1C[C@H](C)[C@@H](CN(C)C(=O)Nc2ccccc2)OCCCC[C@H](C)Oc2ccc(NS(=O)(=O)c3ccc(Cl)cc3)cc2C1=O | inactive | inactive | inactive |
| C[C@@H]1CN([C@H](C)CO)C(=O)c2cccc(NC(=O)C3CC3)c2O[C@@H]1CN(C)Cc1ccc2c(c1)OCO2 | inactive | inactive | inactive |
| COc1ccc(S(=O)(=O)N(C)C[C@@H]2Oc3ccc(NC(=O)Nc4c(C)noc4C)cc3C(=O)N([C@@H](C)CO)C[C@H]2C)cc1 | inactive | inactive | inactive |

| SMILES | cytotoxicity call (HSkMC) | cytotoxicity call (HepG2) | growth inhibition call (S. aureus RN4220) |
| --- | --- | --- | --- |
| C[C@@H](O)COC[C@H]1O[C@@H]2O[C@H]3[C@H](O)[C@@H](O)[C@@H](O[C@H]4[C@H](O)[C@@H](O)[C@@H](O[C@H]5[C@H](O)[C@@H](O)[C@@H](O[C@H]6[C@H](O)[C@@H](O)[C@@H](O[C@H]7[C@H](O)[C@@H](O)[C@@H](O[C@H]8[C@H](O)[C@@H](O)[C@@H](O[C@H]1[C@H](O)[C@H]2O)O[C@@H]8COC[C@@H](C)O)O[C@@H]7COC[C@@H](C)O)O[C@@H]6COC[C@@H](C)O)O[C@@H]5COC[C@@H](C)O)O[C@@H]4COC[C@@H](C)O)O[C@@H]3COC[C@@H](C)O | inactive | inactive | inactive |
| C[C@H](CO)N1C[C@H](C)[C@@H](CN(C)S(=O)(=O)c2cn(C)cn2)Oc2ncc(C#CCN(C)C)cc2C1=O | inactive | inactive | inactive |
| COc1cccc(CNC(=O)c2cc3c(c(-c4cccc(-c5ccncc5)c4)n2)[C@@H](CCO)N([S@@](=O)C(C)(C)C)C3)c1 | inactive | inactive | inactive |
| CN(C)C(=O)C[C@H]1CC[C@H]2[C@H](COc3ccc(NS(=O)(=O)c4cccc(F)c4)cc3C(=O)N2C)O1 | inactive | inactive | inactive |
| CC1(C)C(=O)NCCN1C(=O)c1ccco1 | inactive | inactive | inactive |
| COCC(=O)Nc1ccc2c(c1)C(=O)N(C)[C@@H]1CC[C@H](CC(=O)NC3Cc4ccccc4C3)O[C@H]1CO2 | inactive | inactive | inactive |
| O=C(N[C@@H]1CC[C@H](CC(=O)N2CCOCC2)O[C@H]1CO)c1ccccn1 | inactive | inactive | inactive |
| C[C@@H]1CN([C@H](C)CO)C(=O)c2c(c3ccccc3n2C)-c2ccccc2CO[C@@H]1CN(C)Cc1ccccc1 | inactive | active | inactive |
| C[C@@H]1CN([C@H](C)CO)C(=O)c2cc(C#CCN(C)C)cnc2O[C@H]1CN(C)Cc1ccc(C(=O)O)cc1 | inactive | inactive | inactive |
| C[C@@H]1CCCCO[C@@H](CN(C)C(=O)Nc2ccccc2)[C@@H](C)CN([C@@H](C)CO)C(=O)c2cc(NC(=O)Nc3ccc(F)cc3)ccc2O1 | inactive | inactive | inactive |
| Cc1noc(C)c1NC(=O)N(C)C[C@H]1OCCCC[C@H](C)Oc2ccc(NC(=O)C3CCCCC3)cc2C(=O)N([C@H](C)CO)C[C@H]1C | inactive | inactive | inactive |
| O=C(C[C@@H]1CC[C@H]2[C@@H](COC[C@H](O)CN2C(=O)c2cnccn2)O1)NCc1ccc(Oc2ccccc2)cc1 | inactive | inactive | inactive |
| Cc1noc(C)c1NC(=O)N[C@H]1C=C[C@H](CC(=O)NCCCN(C)C)O[C@H]1CO | inactive | inactive | inactive |
| Cc1noc(C)c1S(=O)(=O)Nc1ccc2c(c1)CC(=O)N([C@@H](C)CO)C[C@@H](C)[C@@H](CN(C)S(=O)(=O)c1ccc(F)cc1)O2 | inactive | inactive | inactive |
| C[C@@H]1CN([C@H](C)CO)C(=O)c2cc(C#CC3(O)CCCC3)cnc2O[C@@H]1CN(C)S(=O)(=O)c1ccc(F)cc1 | inactive | inactive | inactive |
| CC(C)NC(=O)N(C)C[C@@H]1OCCCC[C@H](C)Oc2ccc(NC(=O)Nc3cccc4ccccc34)cc2C(=O)N([C@@H](C)CO)C[C@H]1C | inactive | inactive | inactive |
| COc1c(Cl)c(C)c(C(=O)Oc2cc(C)c(C(=O)O)c(O)c2)c(O)c1Cl | inactive | inactive | inactive |
| NCc1nc(-c2ccccc2)no1 | inactive | inactive | inactive |
| C[C@@H]1CN([C@@H](C)CO)C(=O)CCCn2cc(nn2)CO[C@@H]1CN(C)C(=O)c1cc(-c2ccccc2)on1 | inactive | inactive | inactive |
| C[C@@H]1CN([C@@H](C)CO)C(=O)c2cccc(NS(=O)(=O)c3ccccc3)c2O[C@@H]1CN(C)C(=O)Nc1cccc2ccccc12 | inactive | inactive | inactive |
| C[C@@H]1CN([C@H](C)CO)C(=O)c2cc(NC(=O)CCCN(C)C)ccc2O[C@H]1CN(C)S(=O)(=O)c1cccs1 | inactive | inactive | inactive |
| COCCNC(=O)C[C@H]1CC[C@H]2[C@H](COc3ccc(NS(=O)(=O)c4ccc(Cl)cc4)cc3C(=O)N2C)O1 | inactive | inactive | inactive |
| COc1ccc(S(=O)(=O)Nc2ccc3c(c2)CC(=O)N([C@@H](C)CO)C[C@H](C)[C@H](CN(C)Cc2ccc(Cl)c(Cl)c2)O3)cc1 | active | active | inactive |
| CO[C@@H]1[C@H](O)[C@@H](CO)O[C@H]1n1cc(C)c(N)nc1=O | inactive | inactive | inactive |
| Cc1ccc(S(=O)(=O)Nc2ccc3c(c2)C(=O)N([C@@H](C)CO)C[C@H](C)[C@H](CN(C)Cc2ccccc2)OCCCC[C@H](C)O3)cc1 | inactive | inactive | inactive |
| COc1cccc(S(=O)(=O)N(C)C[C@H]2Oc3ncc(C#CCN(C)C)cc3C(=O)N([C@@H](C)CO)C[C@@H]2C)c1 | inactive | inactive | inactive |
